The % Inhibition is the change of the read-out against control, counted positive when it falls.

The whole screen tested about 150,000 compounds, of which about 540 (0.36%) showed an effect of 50% or more. The list shows a part of the results.

The test has as its system Plasmodium falciparum. As to the kind of experiment: Primary screen in NF54 nanoGlo assay, in single point, at 2uM, 72h; a lower Z score goes with more inhibition. The following applies: timepoint 72 hour. The class given is functional, Erythrocyte.
For `Cc1ccc(OCCN2CCC3(CC2)[C@H](O)C[C@@H]3OCCO)cc1C`, the “% Inhibition” value is listed as -14% and the Z score stood at 2.34.
Regarding `CCCn1nc(COc2cccc(OC)c2)nc1C1(CO)CC1`, the “% Inhibition” value is listed as -19% and the Z score was determined as 2.79.
As to `COCCn1nnc2ccc(NC(=O)C3CCCCC3)cc2c1=O`, the “% Inhibition” value is -3% and the Z score is 0.36.
As to `CN1CC[C@H](N(C)c2cc(C#N)ccn2)C1=O`, the “% Inhibition” value is reported as -1% and the Z score turned out to be 0.13.
Regarding `Cc1csc([C@@H](NC(=O)Cc2cncc(O)c2)C(F)(F)F)n1`, the “% Inhibition” value is given as 1% and the Z score is recorded as -0.11.
For `C[C@@H](c1cccc(Br)c1)S(=O)(=O)CCCC#N`, the “% Inhibition” value was 2% and the Z score is listed as -0.24.
In the case of `O=S1(=O)CC[C@H](Cc2nc(-c3ccccn3)nn2-c2ccccc2)C1`, the “% Inhibition” value is 7% and the Z score is given as -1.29.
On to `CCn1c2ccccc2c2nnc(N3CCN(c4ccc(F)cc4)CC3)nc21`, for which the “% Inhibition” value is -6% and the Z score amounted to 1.15.
As to `C[C@@H](c1nnc(Nc2ccn(Cc3ccccc3Cl)n2)s1)n1cc(Br)cn1`, the “% Inhibition” value is recorded as -5% and the Z score was found to be 0.67.
`O=C(c1ccccn1)N1CCN(Cc2ccncc2)[C@@H]2CS(=O)(=O)C[C@@H]21`: the “% Inhibition” value is -7% and the Z score turned out to be 0.76.
As to `COc1ccc(CNC(=O)N2CCC(Cc3ccccc3F)CC2)c(OC)c1`, the “% Inhibition” value is reported as -10% and the Z score came to 1.75.
The matching figures for `CC(C)OCCC(=O)N1CC2(CCC2)[C@H]1c1ccccc1`: -3% and 0.62.
Turning to `Cc1cc(S(=O)(=O)N2C[C@H](C(C)C)[C@@H](N(C)C)C2)c(C)s1`, the “% Inhibition” value is listed as 1% and the Z score is reported as -0.22.
For `Cn1cc(CNC(=O)Nc2ccc(=O)n(Cc3ccc(Cl)c(Cl)c3)c2)cn1`, the “% Inhibition” value is recorded as -3% and the Z score worked out at 0.27.
With `COc1cc(CN2CCC(CCC(=O)NCc3ccc(F)cc3)CC2)cc(Cl)c1O`, the “% Inhibition” value is listed as -14% and the Z score turned out to be 1.27.
The matching figures for `O=C(C1CCC1)N1Cc2ccccc2C1`: -9% and 1.1.
In the same order, the values of `Cc1ccc2c(C(=O)N[C@H]3CCCc4cnccc43)cnn2c1C` are -3% and 0.35.
Consider `CN1C(=O)[C@@H](c2ccccc2)CC12CCN(C(=O)CNC(N)=O)CC2`, for which the “% Inhibition” value is -18% and the Z score amounted to 1.88.
For `Cc1ccc([C@@H]2Cn3nnc(C(=O)N4CCC(C(=O)Nc5ccc(Cl)c(C)c5)CC4)c3CO2)cc1`, the “% Inhibition” value is given as -10% and the Z score is 0.95.
Turning to `CCCC(CCC)C(=O)Nc1ccc(F)c(Cl)c1`, the “% Inhibition” value was -34% and the Z score is recorded as 4.04.
In the case of `FC(F)(F)c1ccc(N2CCc3nocc3C2)nc1`, the “% Inhibition” value is -4% and the Z score was 0.63.
The matching figures for `O=C(NC(Cc1ccncc1)[C@H]1C[C@@H](O)C1)c1ncn[nH]1` (stereo partly drawn): 17% and -2.23.
Take `Cc1cc(C)c(S(=O)(=O)N2CCC3(CC2)NCCN=C3NCc2ccccc2C)cc1C`: the “% Inhibition” value is recorded as -5% and the Z score came to 0.61.
With `Cc1cc(C(=O)N[C@H]2CCN(Cc3noc(C4CCCC4)n3)C[C@@H]2O)no1`, the “% Inhibition” value is on record as -6% and the Z score came out at 1.1.
In the same order, the values of `Cc1n[nH]c(=O)c(C(=O)N2CCc3cc(-c4ccccc4)oc3C2)c1C` are -8% and 1.5.
For `COc1ccc(C(=O)N2CC(F)(F)C[C@H]2Cn2cc(C(=O)N3CCOCC3)nn2)cn1`, the “% Inhibition” value is given as -7% and the Z score is listed as 1.12.
With `N#Cc1cccc(C(F)(F)F)c1Br`, the “% Inhibition” value is given as -8% and the Z score is listed as 1.03.
Regarding `COCc1nc(N[C@@H]2CCc3ccccc32)cc([C@H]2C[C@H](N)C2)n1`, the “% Inhibition” value is recorded as -14% and the Z score is recorded as 1.68.
`O=C(O)C1CC[C@@H](c2ccccc2)N1C(=O)Cc1ccccc1OC(F)F` (stereo partly drawn): the “% Inhibition” value is -2% and the Z score was determined as 0.18.
`CCS(=O)(=O)N1CCC[C@H](c2nnc(C(=O)Nc3cccc(Cl)c3)s2)C1`: the “% Inhibition” value is recorded as -6% and the Z score is 0.92.
On to `CC1CC(NC(=O)N2CCCCO2)CC(C)O1` (stereo not drawn), for which the “% Inhibition” value is listed as -3% and the Z score is 0.28.
Turning to `c1ccc2c(CN[C@H]3CCCNC3)cccc2c1`, the “% Inhibition” value is recorded as 2% and the Z score is -0.3.
In the same order, the values of `O=C(C[C@H]1COCCN1CCc1ccccc1)NCc1cccc(Cl)c1` are -14% and 1.32.
For `CN(Cc1ccccc1)c1ncccc1CNc1ncccc1F`, the “% Inhibition” value is given as -8% and the Z score came to 0.99.
The matching figures for `OCC[C@H]1CN(C2CCN(c3ccc(Cl)cc3)CC2)CCN1CCc1ccccc1`: -16% and 2.27.
In the same order, the values of `CCN(CC)C(=O)[C@@H]1CCC[C@@H](NC(=O)c2ccc(OC)cc2)CN(C)C(=O)C1` are 0% and 0.02.
In the case of `Cc1noc(CN(C)Cc2cc3cc4c(cc3nc2-c2ccc(F)cc2)OCO4)n1`, the “% Inhibition” value is reported as -8% and the Z score was 1.55.
`CO[C@H]1CN(C(=O)c2cc(Br)cn2C)C[C@@H]1O`: the “% Inhibition” value turned out to be 3% and the Z score is -0.59.
In the same order, the values of `COc1cc(C)n(CCNC(=O)c2snnc2C)c(=O)c1` are -16% and 3.04.
With `COCCCN1CCN(C(=O)c2cc(C)nc3cc(Cl)ccc23)CC1`, the “% Inhibition” value is on record as -1% and the Z score was 0.16.
For `Cc1nccn1-c1ccnc(C(=O)NCc2cn(C(C)C)nn2)c1`, the “% Inhibition” value is -6% and the Z score was determined as 1.18.
For the molecule `COCC[C@]1(c2noc(C)n2)CCCN(S(=O)(=O)c2cc(F)ccc2C)C1`, the “% Inhibition” value is recorded as -5% and the Z score was 0.78.
In the case of `Cc1cc(NC(=O)C(C)S(=O)(=O)C(C)c2ccccc2F)on1` (stereo not drawn), the “% Inhibition” value was determined as 11% and the Z score is -1.09.
As for `O=C(Cn1nnnc1-c1ccsc1)N1CCC(Cc2ccccc2)CC1`, the “% Inhibition” value is -1% and the Z score is on record as 0.13.
Take `Cc1nc2c(c(N3CC(C)CC(C(=O)O)C3)n1)CCCC2` (stereo not drawn): the “% Inhibition” value is reported as -2% and the Z score is reported as 0.19.
The matching figures for `COc1cncc(-c2cccc3[nH]ccc23)c1`: -10% and 0.94.
Take `O=C(CCN1C(=O)c2ccccc2C1=O)Oc1cccc2cccnc12`: the “% Inhibition” value was -11% and the Z score came to 1.48.
For `COCC[C@H]1CN(C(=O)Nc2cccc(OCc3ccccc3)c2)CCO1`, the “% Inhibition” value was found to be 5% and the Z score is on record as -0.98.
For `Cn1nc(C(=O)N2CCCC[C@H]2c2nc3ccccc3o2)cc1C1CC1`, the “% Inhibition” value stood at 5% and the Z score is given as -0.61.
Consider `CCC[C@H]1CN(C(=O)c2ccc(C)[nH]c2=O)C[C@@H]1NS(C)(=O)=O`, for which the “% Inhibition” value is 1% and the Z score is recorded as -0.12.
Consider `Cc1ccc(-c2nc([C@H]3CCC(F)(F)C3)no2)nn1`, for which the “% Inhibition” value is reported as -7% and the Z score is recorded as 1.29.
With `CCc1nnc(-c2c(C)c(S(=O)(=O)NCc3ccc(F)cc3F)c(C)n2C)o1`, the “% Inhibition” value is given as 1% and the Z score is -0.09.
Consider `Cc1cccnc1CN1CCOC[C@H]1c1nc(-c2ccccc2)no1`, for which the “% Inhibition” value is -4% and the Z score is reported as 0.61.
Turning to `O=C(NC1CCCC1)N1CCC(F)(F)CC1`, the “% Inhibition” value amounted to 1% and the Z score is on record as -0.29.
As to `Cc1ncsc1CN1CC(N(C2CCOCC2)S(C)(=O)=O)C1`, the “% Inhibition” value is -4% and the Z score turned out to be 0.68.
Turning to `Cc1nc2ncnn2c(O)c1NC(=O)Nc1cccc(F)c1`, the “% Inhibition” value was 0% and the Z score amounted to 0.05.
For the molecule `c1sc2c(c1-c1nc([C@H]3CCOC3)no1)CCCC2`, the “% Inhibition” value is -13% and the Z score came out at 1.82.
With `Cc1nnc(NC(=O)CCNC(=O)C2CCCC2)s1`, the “% Inhibition” value is -7% and the Z score came to 0.66.
On to `CC(C)(CO)NC(=O)Nc1ccccc1OCCc1ccccn1`, for which the “% Inhibition” value came out at 8% and the Z score is reported as -1.07.
As for `COCCN1CCC(c2c(-c3ccccc3)ncn2CCOCCO)CC1`, the “% Inhibition” value is on record as -11% and the Z score came to 2.16.
Turning to `COCC1(C2CCC2)CN(C(=O)c2ccc(-c3cccc(C)c3)n2C)C1`, the “% Inhibition” value is given as 1% and the Z score is given as -0.15.
In the case of `CC(C)Oc1cc(CN(C(=O)c2ccn(CC(F)F)n2)C2CC2)ccn1`, the “% Inhibition” value is on record as -12% and the Z score turned out to be 1.51.
In the same order, the values of `O=S(=O)(c1c(F)cccc1Cl)N1CCC(n2cccn2)CC1` are 10% and -0.88.
The matching figures for `O=C1CNCCN1[C@H]1CCCN(Cc2n[nH]c3ccccc23)C1`: -12% and 1.25.
In the same order, the values of `Cc1ccc(-n2nc(C(C)C)c(C(=O)NCc3ccco3)c2C(C)C)cc1` are -1% and 0.16.
Take `CN(Cc1ccccc1)C(=O)Cn1nncc1-c1ccccc1`: the “% Inhibition” value is given as -3% and the Z score came out at 0.44.
In the same order, the values of `CN1CCCN(c2ccc(NC(=O)c3cccc(Cl)c3)c(C(=O)O)c2)CC1` are 39% and -5.63.
In the same order, the values of `Cc1cccc(NC(=O)[C@H]2CCCN(c3nnc4cccc(C)n34)C2)c1` are -10% and 1.07.
Regarding `O=C(NC[C@@H]1CCC[C@H]1O)c1cnc2c(F)cccc2c1`, the “% Inhibition” value is reported as -12% and the Z score amounted to 1.61.
Turning to `COc1ccccc1-c1n[nH]c(C2CC2)c1NC(=O)CC(C)(C)C`, the “% Inhibition” value is on record as -16% and the Z score was determined as 1.53.
Regarding `C/C(=C\c1ccccc1)CN1CCC2(CC1)[C@H](O)C[C@@H]2O`, the “% Inhibition” value was 0% and the Z score came to 0.04.
On to `CC1(C)CO[C@H](c2ccccc2Cl)CN1CC(=O)N1CCOCC1`, for which the “% Inhibition” value is -5% and the Z score worked out at 0.54.
As for `Cc1ccc(-c2nc3nc(-c4ccccc4)c(-c4ccccc4)nn3c2C)cc1`, the “% Inhibition” value came out at 3% and the Z score is given as -0.47.
Take `O=C(NCC1CC1)C(=O)N[C@H]1CCCC[C@@H]1O`: the “% Inhibition” value is -1% and the Z score is recorded as 0.18.
`O=C(CN1CCCC1c1nc2ccccc2s1)NC1CCS(=O)(=O)C1` (stereo not drawn): the “% Inhibition” value was -1% and the Z score was 0.14.
The matching figures for `O=C(N[C@H]1CCOC[C@H]1C1CCOCC1)c1ccc(F)c(O)c1`: -10% and 1.48.
Take `COc1cc(NC(=O)Cn2cc(OC)c(=O)cc2CO)cc(OC)c1OC`: the “% Inhibition” value is listed as -6% and the Z score was 0.77.
As to `C#CCNC(=O)N1CCCCC[C@@H]1CC`, the “% Inhibition” value is on record as -5% and the Z score is listed as 0.67.
For `O=C(NC1CCCCCC1CO)c1c[nH]nc1-c1ccsc1` (stereo not drawn), the “% Inhibition” value is -11% and the Z score was 1.08.
Turning to `COc1ccc(OC)c(S(=O)(=O)N2CC[C@H](S(=O)(=O)c3ccc(Cl)cc3)C2)c1`, the “% Inhibition” value is listed as 7% and the Z score was -1.25.
Regarding `CCc1cc(CNC(=O)N(Cc2ccccc2F)C2CCC2)[nH]n1`, the “% Inhibition” value was 1% and the Z score is given as -0.1.
In the same order, the values of `c1cc(OCc2ccc3c(c2)OCO3)ccc1CNC[C@H]1CCCO1` are 14% and -1.84.
With `CN(C)S(=O)(=O)N(CCNC(=O)Nc1ccccc1C(F)(F)F)C1CCOCC1`, the “% Inhibition” value is 0% and the Z score is -0.05.
For the molecule `O=C(Nc1ccc(O)cc1)C1CCN(C(=O)C23CCCN2CCC3)CC1`, the “% Inhibition” value is -8% and the Z score amounted to 1.46.

Values taken from ChEMBL document CHEMBL4888484, “Replenishing the malaria drug discovery pipeline: Screening and hit evaluation of the MMV Hit Generation Library 1 (HGL1) against asexual blood stage Plasmodium falciparum ,using a nano luciferase reporter read-out” (2022).
